Assay results published in PubChem BioAssay AID588579 (National Center for Advancing Translational Sciences (NCATS), 2011).
Several values for one entry are separate records, joined by “and”; a condition that tells them apart may be missing. Equal values may be shown once. Hit rate of the full screen: of about 400,000 compounds, about 2,200 (0.55%) were called active. The inconclusive results got no clear call from the source; some entries with a clear call stand among them for comparison. Calls follow the shape of the dose curve; as a rule, active = well fitted inhibition curve with a large enough effect; inconclusive = small, poorly fitted or top-dose-only effect, or another doubt; inactive = no such curve, though single readings can be large or run the other way. A potency beside an inconclusive call is a rough fit, not a confirmed value. More than one record can exist for a structure, and the calls need not agree.
% is scaled to controls: 0 for no effect and ±100 for the full control effect; potency is read from the fitted curve at half-maximal effect; tags tell the direction and shape of the fitted curve.

The compounds below were run against DNA polymerase kappa (Homo sapiens) (UniProt Q9UBT6) (assay: qHTS for Inhibitors of Polymerase Kappa). Settings: purified Pol kappa, fluorescent DNA synthesis assay, 10 min; series mostly up to 107 µM; activity, negative = inhibition: at the top concentration.
Sequence of UniProt Q9UBT6 (Q9UBT6 whole entry, looked up): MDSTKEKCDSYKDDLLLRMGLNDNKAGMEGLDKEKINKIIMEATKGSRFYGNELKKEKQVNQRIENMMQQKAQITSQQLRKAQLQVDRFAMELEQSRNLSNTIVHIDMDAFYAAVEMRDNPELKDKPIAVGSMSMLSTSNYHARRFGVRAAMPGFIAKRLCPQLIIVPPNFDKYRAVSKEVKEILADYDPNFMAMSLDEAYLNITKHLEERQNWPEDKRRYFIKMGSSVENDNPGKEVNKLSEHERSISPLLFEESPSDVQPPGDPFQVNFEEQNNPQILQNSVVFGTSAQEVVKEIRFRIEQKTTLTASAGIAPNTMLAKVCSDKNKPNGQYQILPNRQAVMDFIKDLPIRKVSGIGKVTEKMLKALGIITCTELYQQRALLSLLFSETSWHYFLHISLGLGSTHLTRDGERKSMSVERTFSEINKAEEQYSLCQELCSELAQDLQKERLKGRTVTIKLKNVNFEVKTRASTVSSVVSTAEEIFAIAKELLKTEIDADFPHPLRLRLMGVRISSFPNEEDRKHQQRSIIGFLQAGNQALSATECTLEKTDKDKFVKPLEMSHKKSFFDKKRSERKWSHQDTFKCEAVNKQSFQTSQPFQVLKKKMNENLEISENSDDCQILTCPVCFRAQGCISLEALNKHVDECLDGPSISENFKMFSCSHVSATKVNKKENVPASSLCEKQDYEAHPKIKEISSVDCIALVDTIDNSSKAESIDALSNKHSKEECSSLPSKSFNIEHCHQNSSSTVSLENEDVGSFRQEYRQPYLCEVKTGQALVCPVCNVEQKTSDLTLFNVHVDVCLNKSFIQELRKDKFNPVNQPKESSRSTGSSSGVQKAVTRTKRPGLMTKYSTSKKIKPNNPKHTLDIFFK
In short: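 Kinetic fluorescence screen: compound preincubated 15 min RT with 10 nM enzyme; 50 nM substrate (final) initiates; reads at 0/10 min.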
In the case of Clc1ccc(COC(Cn2ccnc2)c2ccc(Cl)cc2Cl)cc1 (stereo not given), the Potency is reported as inconclusive: 10 µM [inhibitor, full curve, poor fit].
In the case of CC(C)OC(=O)Cc1ccccc1, the Potency is reported as inconclusive: 89.1 µM [inhibitor, partial curve, poor fit].
In the case of CCN1C(=O)C(=C/C=C/c2ccco2)C(=O)N(CC)C1=S, the Potency is reported as inconclusive: 20 µM [inhibitor, full curve, poor fit].
C/C=C(/C)C(=O)O[C@H]1C(C)=C2[C@H]([C@@H]1OC(=O)CCCCCCC)[C@@](C)(OC(C)=O)C[C@H](OC(=O)CCC)[C@@]1(O)[C@H]2OC(=O)[C@@]1(C)O was tested, and the Potency was inconclusive: 11.2 µM [inhibitor, partial curve] and inconclusive: 12.6 µM [inhibitor, partial curve, poor fit] and inconclusive: 8.44 µM [inhibitor, partial curve].
O=C1NC(=O)[C@]2(Cc3ccccc3N3CCN(c4ccccc4)CC32)C(=O)N1c1ccccc1 (stereo not given in full) was tested, and the Potency was inconclusive: 79.4 µM [inhibitor, single point].
With COc1ccc(N=Cc2c(O)n(Cc3cccs3)c(=O)[nH]c2=O)cc1 the Potency was inconclusive: 89.1 µM [inhibitor, single point].
In the case of CC(=O)c1ccc2c(c1)C1C(Cl)C(Sc3ccccc3[N+](=O)[O-])CC1C(C(=O)O)N2 (stereo not given), the Potency is reported as inconclusive: 56.2 µM [inhibitor, partial curve, poor fit].
CC(C)Nc1nc(Cl)nc(NC(C)C)n1 was tested, and the Potency was inconclusive: 39.8 µM [inhibitor, single point].
In the case of [O]=[Sb]([OH])([OH])[c]1ccccc1, the Potency is reported as active: 25.1 µM.
For O=C1C=C2C=C[C@H]3C[C@@]2(O1)[C@H]1CCCCN31, the activity, negative = inhibition was inactive: 2.55% [at 12 µM].
In the case of CC[C@H](C)/C=C(C)/C=C/C1=CC2=C(Cl)C(=O)[C@](C)(OC(C)=O)C(=O)C2=CO1, the Potency is reported as active: 79.4 µM.
In the case of COc1ccccc1N1C(=O)NC(=O)/C(=C/c2ccc([N+](=O)[O-])s2)C1=O, the Potency is reported as active: 39.8 µM.
For O=C(O)c1ccc2c(c1)C1C(Cl)C(Sc3ccccc3[N+](=O)[O-])CC1C(c1cccc([N+](=O)[O-])c1)N2 (stereo not given), the Potency was active: 50.1 µM.
For N#Cc1cccc(NC(=O)N2CC[C@@]3(CCCN(C(=O)Oc4ccccc4)C3)C2)c1, the Potency was inconclusive: 3.98 µM [inhibitor, full curve, poor fit].
In the case of O=C(O)CCC(=O)NCCC1=c2ccccc2=N/C1=C\c1c(O)n(Cc2ccc(F)cc2)c(=S)[nH]c1=O, the Potency is reported as inconclusive: 89.1 µM [inhibitor, partial curve, poor fit].
CCN(CC)C(=O)N[C@H]1C[C@@H]2c3cccc4[nH]cc(c34)C[C@H]2N(C)C1 was tested, and the Potency was inconclusive: 100 µM [inhibitor, single point].
In the case of COc1ccccc1N1C(=O)NC(=O)/C(=C/c2ccc3c(c2)Cc2ccccc2-3)C1=O, the “activity, negative = inhibition” value is reported as inactive: -2.65%.
Cc1ccc(/C=C2\C(=O)NC(=S)N(c3ccccc3F)C2=O)s1 was tested, and the Potency was inconclusive: 50.1 µM [inhibitor, partial curve].
For Oc1c(Br)c(Br)c(Br)c(Br)c1Br, the Potency was inconclusive: 89.1 µM [inhibitor, single point].
For Cc1cc(/C=C/c2cccc3sc(C)[n+](CCCCI)c23)ccc1N(CCCl)CCCl, the Potency was active: 56.2 µM.
CO[C@H]1[C@@H](O)[C@@H](C)O[C@H](O[C@H]2[C@H](Oc3cccc4c(O)c5c(=O)oc6ccc(C)c7c(=O)oc(c34)c5c67)O[C@H](C)[C@H](O)[C@@H]2O)[C@@H]1O was tested, and the Potency was active: 35.5 µM.
For CCOc1ccc(CCNC(=O)c2cc3c(-c4cccc(OC)c4)nn(C)c3s2)cc1OCC, the Potency was inconclusive: 89.1 µM [inhibitor, single point].
O=C1NC(=O)N(c2ccccc2)C(=O)/C1=C/c1coc2ccc(O)cc2c1=O was tested, and the Potency was inconclusive: 89.1 µM [inhibitor, single point].
With C[N+]1([O-])[C@@H]2CC(OC(=O)[C@H](CO)c3ccccc3)C[C@H]1[C@@H]1O[C@@H]12 (stereo not given in full) the “activity, negative = inhibition” value was inactive: 0%.
With C[S@@](=O)CCCCN=C=S the “activity, negative = inhibition” value was inactive: 13.7% [at 60.1 µM].
With CCN(CC)P(=O)(c1n(CC)cc[n+]1CC)N(CC)CC the “activity, negative = inhibition” value was inactive: -1.35%.
With Cc1cccc(OCC(=O)N2CCN(Cc3ccc([N+](=O)[O-])cc3)CC2)c1 the Potency was inconclusive: 100 µM [inhibitor, single point].
With Cc1ccnc(-n2c(C)cc(C=C3C(=O)N(C)C(=S)N(C)C3=O)c2C)c1 the “activity, negative = inhibition” value was inactive: -25.1%.
CC[N+](C)(CC)CCC[n+]1c(-c2ccccc2)c2cc(N)ccc2c2ccc(N)cc21 was tested, and the Potency was active: 6.31 µM.
O=c1ccc2cc(O[C@@H]3O[C@H](CO)[C@@H](O)[C@H](O)[C@H]3O)c(O)cc2o1 was tested, and the “activity, negative = inhibition” value was inactive: -0.882%.
COc1cc2c(cc1O)C[C@H]1c3c(cc(OC)c(O)c3-2)CCN1C was tested, and the Potency was inconclusive: 3.16 µM [inhibitor, partial curve].
For CC(C)NC(C)Cc1ccc(I)cc1 (stereo not given), the Potency was “inactive”.
C[C@@H]1C[C@@H]2[C@H]([C@H]3C=C(COC(=O)c4ccccc4)[C@@H](O)[C@]4(O)[C@@H](O)C(OC(=O)c5ccccc5)=C[C@@]14C3=O)C2(C)C was tested, and the Potency was inconclusive: 26.7 µM [inhibitor, partial curve, poor fit].
For CC(C)=CCCC1(C)C=Cc2c(O)c3c(c(CC=C(C)C)c2O1)OC12C(=CC4CC1C(C)(C)OC2(C/C=C(/C)C(=O)O)C4=O)C3=O (stereo not given), the Potency was active: 22.4 µM.
For N=C1/C(=C\c2ccc(OC(=O)c3ccccc3Cl)cc2)C(=O)N=C2SC(N3CCOCC3)=NN12, the Potency was inconclusive: 79.4 µM [inhibitor, single point].
For C[n+]1c(-c2ccccc2)c2cc(N)ccc2c2ccc(N)cc21, the Potency was active: 25.1 µM.
With O=C1Nc2ccccc2/C1=C/c1nc2ccccc2c(=O)n1-c1ccc(O)cc1 the Potency was inconclusive: 89.1 µM [inhibitor, single point].
C=CCN1C(=O)/C(=C/c2ccc3c(c2)CCCN3CCC)C(=O)NC1=S was tested, and the Potency was inconclusive: 100 µM [inhibitor, single point].
For CC(=O)c1c(O)c(C)c(O)c(Cc2c(O)c3c(c(C(=O)/C=C\c4ccccc4)c2O)OC(C)(C)C=C3)c1O, the Potency was inconclusive: 3.55 µM [inhibitor, partial curve, poor fit].
N#CC(C#N)=NNc1ccc(S(N)(=O)=O)cc1 was tested, and the Potency was active: 44.7 µM.
For CNc1ccc2nc3ccccc3[n+](C)c2c1, the Potency was active: 20 µM.
With N#CC(C#N)=Cc1ccc(O)c(O)c1 the Potency was active: 11.2 µM.
COc1cc(/C=C/c2nc3ccccc3c(=O)n2-c2ccc(O)cc2)ccc1O was tested, and the Potency was inconclusive: 79.4 µM [inhibitor, partial curve].
CC(C)C[C@H]1C(=O)N2CCCC2[C@]2(O)O[C@](NC(=O)[C@@H]3C=C4c5cccc6[nH]cc(c56)CC4N(C)C3)(C(C)C)C(=O)N12 (stereo not given in full) was tested, and the Potency was inconclusive: 0.891 µM [inhibitor, partial curve, poor fit].
In the case of COc1ccc(N2C(=O)/C(=C/C=C/c3ccccc3[N+](=O)[O-])C(=O)NC2=S)cc1, the Potency is reported as inconclusive: 89.1 µM [inhibitor, single point].
CN(C)[C@@H]1C(=O)C(C(N)=O)=C(O)[C@@]2(O)C(=O)C3=C(O)c4c(O)cccc4[C@@](C)(O)C3C[C@@H]12 (stereo not given in full) was tested, and the Potency was active: 79.4 µM.
With O=C1NC(=O)N(c2ccc3c(c2)OCO3)C(=O)/C1=C\c1ccc(-c2ccccc2C(=O)O)o1 the Potency was active: 79.4 µM.
For Cc1ccc(N2C(=O)NC(=O)/C(=C\c3cc(C)n(-c4ccc(C(=O)O)cc4)c3C)C2=O)cc1, the Potency was inconclusive: 89.1 µM [inhibitor, single point].
O=C(CN1CCCC2CCCCC21)c1ccc(I)cc1 (stereo not given) was tested, and the “activity, negative = inhibition” value was inactive: -8.04%.
With N[C@@H](Cc1cc(I)c(O)c(I)c1)C(=O)O the Potency was active: 39.8 µM and active: 50.1 µM.
For Cn1cccc1/C=C1\C(=O)NC(=O)N(Cc2ccccc2)C1=O, the Potency was active: 50.1 µM.
With Nc1ncnc2c1ncn2[C@@H]1O[C@H](COP(=O)(O)OP(=O)(O)OP(=O)(O)O)[C@H]2OC3(O[C@H]21)C([N+](=O)[O-])=CC(=[N+]([O-])[O-])C=C3[N+](=O)[O-] (stereo not given in full) the Potency was inconclusive: 39.8 µM [inhibitor, single point].
Cc1ccc2cc3c(ccc4ccccc43)c3c2c1CC3 was tested, and the activity, negative = inhibition was inactive: -4.96% [at 19.4 µM].
With CN1C(=O)NC(=O)/C(=C\c2ccc([N+](=O)[O-])o2)C1=O the Potency was active: 14.1 µM.
CCCCC/C=C\C/C=C\C/C=C\C/C=C\CCCC(=O)N[C@H](C)CO was tested, and the Potency was inconclusive: 39.8 µM [inhibitor, single point].
Cc1ccc(/C=C2\C(=O)NC(=O)N(Cc3ccccc3Cl)C2=O)o1 was tested, and the Potency was inconclusive: 89.1 µM [inhibitor, single point].
For CCCCC/C=C\C/C=C\C/C=C\C/C=C\CCCC(=O)NCCCl, the Potency was inconclusive: 28.2 µM [inhibitor, partial curve, poor fit].
For CCCCCCCCCCCCCC(=O)O[C@@H]1[C@@H](C)[C@@]2(O)[C@H](C=C(CO)C[C@]3(O)C(=O)C(C)=C[C@@H]23)[C@@H]2C(C)(C)C12OC(C)=O (stereo not given in full), the Potency was inconclusive: 8.91 µM [inhibitor, partial curve, poor fit].
In the case of O=c1cc(-c2ccc(O)c(O)c2)oc2c(C3O[C@H](CO)[C@@H](O)[C@H](O)[C@H]3O)c(O)cc(O)c12 (stereo not given in full), the Potency is reported as active: 20 µM.
In the case of O=[N+]([O-])c1ccc(C(c2ccc([N+](=O)[O-])cc2)c2ccc([N+](=O)[O-])cc2)cc1, the “activity, negative = inhibition” value is reported as inactive: -2.77%.
